According to the supplement of paper PMC8728848:
The other results are listed elsewhere or left out.

Key:
Experiment in all cases: glycan array binding signal (z-score within array); higher = stronger binding
Details in all cases: glycan notation: IUPAC condensed, linker removed
[1] = target: Gal6S(b1-4)Glc6S
In short: (§1)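 Arrays were curated from the Consortium for Functional Glycomics database, 3228 in total, and kept only where the protein sequence was available. Binding is expressed as a within-array Z-score. This score was averaged across arrays of the same protein sequence at different concentrations or buffers and across linkers, and negative values can be read as non-binding.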

[2] = target: Gal6S(b1-4)GlcNAc
In short: as §1

[3] = target: Gal6S(b1-4)GlcNAc6S
In short: as §1

[4] = target: GalNAc(a1-3)Gal
In short: as §1

[5] = target: GalNAc(a1-3)GalNAc
In short: as §1

[6] = target: GalNAc(a1-3)GalNAc(a1-3)Gal(a1-4)Gal(b1-4)GlcNAc
In short: as §1

[7] = target: GalNAc(a1-3)GalNAc(b1-3)Gal(a1-4)Gal(b1-4)Glc
In short: as §1

[8] = target: GalNAc(b1-3)Gal
In short: as §1

[9] = target: GalNAc(b1-3)Gal(a1-4)Gal(b1-4)GlcNAc
In short: as §1

[10] = target: GalNAc(b1-3)Gal(a1-4)Gal(b1-4)GlcNAc(b1-3)Gal(b1-4)Glc
In short: as §1

[11] = target: GalNAc(b1-3)Gal(a1-6)Gal(b1-4)Glc
In short: as §1

[12] = target: GalNAc(b1-3)GalNAc
In short: as §1

[13] = target: GalNAc(b1-4)GlcNAc
In short: as §1

[14] = target: GalNAc(b1-4)GlcNAc(b1-2)Man(a1-3)[GalNAc(b1-4)GlcNAc(b1-2)Man(a1-6)]Man(b1-4)GlcNAc(b1-4)GlcNAc
In short: as §1

[15] = target: GalNAc(b1-6)GalNAc
In short: as §1

[16] = target: Glc(a1-4)Glc
In short: as §1

[17] = target: Glc(a1-6)Glc(a1-6)Glc
In short: as §1

[18] = target: Glc(b1-4)Glc
In short: as §1

[19] = target: Glc(b1-6)Glc
In short: as §1

[20] = target: GlcA(b1-3)Gal
In short: as §1

[21] = target: GlcA(b1-3)GlcNAc
In short: as §1

[22] = target: GlcA(b1-6)Gal
In short: as §1

[23] = target: GlcNAc(a1-3)Gal(b1-4)GlcNAc
In short: as §1

[24] = target: GlcNAc(a1-4)Gal(b1-3)GlcNAc
In short: as §1

[25] = target: GlcNAc(a1-4)Gal(b1-4)GalNAc
In short: as §1

[26] = target: GlcNAc(a1-4)Gal(b1-4)GlcNAc
In short: as §1

[27] = target: GlcNAc(a1-4)Gal(b1-4)GlcNAc(b1-3)Gal(b1-4)Glc
In short: as §1

[28] = target: GlcNAc(a1-4)Gal(b1-4)GlcNAc(b1-3)Gal(b1-4)GlcNAc
In short: as §1

[29] = target: GlcNAc(a1-4)Gal(b1-4)GlcNAc(b1-3)Gal(b1-4)GlcNAc(b1-3)Gal(b1-4)GlcNAc
In short: as §1

[30] = target: GlcNAc(a1-4)Gal(b1-4)GlcNAc(b1-3)Gal(b1-4)[Fuc(a1-3)]GlcNAc(b1-3)Gal(b1-4)[Fuc(a1-3)]GlcNAc
In short: as §1

[31] = target: GlcNAc(a1-6)Gal(b1-4)GlcNAc
In short: as §1

[32] = target: GlcNAc(b1-2)Gal(b1-3)GalNAc
In short: as §1

[33] = target: GlcNAc(b1-2)Man(a1-3)[GlcNAc(b1-2)Man(a1-6)]Man(b1-4)GlcNAc(b1-4)GlcNAc
In short: as §1

[34] = target: GlcNAc(b1-2)Man(a1-3)[GlcNAc(b1-2)Man(a1-6)]Man(b1-4)GlcNAc(b1-4)[Fuc(a1-6)]GlcNAc
In short: as §1

[35] = target: GlcNAc(b1-2)Man(a1-3)[GlcNAc(b1-4)][GlcNAc(b1-2)Man(a1-6)]Man(b1-4)GlcNAc(b1-4)GlcNAc
In short: as §1

[36] = target: GlcNAc(b1-2)[GlcNAc(b1-4)]Man(a1-3)[GlcNAc(b1-2)Man(a1-6)]Man(b1-4)GlcNAc(b1-4)GlcNAc
In short: as §1

[37] = target: GlcNAc(b1-2)[GlcNAc(b1-4)]Man(a1-3)[GlcNAc(b1-4)][GlcNAc(b1-2)Man(a1-6)]Man(b1-4)GlcNAc(b1-4)GlcNAc
In short: as §1

[38] = target: GlcNAc(b1-2)[GlcNAc(b1-4)]Man(a1-3)[GlcNAc(b1-4)][GlcNAc(b1-2)[GlcNAc(b1-6)]Man(a1-6)]Man(b1-4)GlcNAc(b1-4)GlcNAc
In short: as §1

B1: PILRa (Homo sapiens), Q9UKJ1 (protein)
chain: MGRPLLLPLLPLLLPPAFLQPSGSTGSGPSYLYGVTQPKHLSASMGGSVEIPFSFYYPWELATAPDVRISWRRGHFHRQSFYSTRPPSIHKDYVNRLFLNWTEGQKSGFLRISNLQKQDQSVYFCRVELDTRSSGRQQWQSIEGTKLSITQAVTTTTQRPSSMTTTWRLSSTTTTTGLRVTQGKRRSDSWHISLETAVGVAVAVTVLGIMILGLICLLRWRRRKGQQRTKATTPAREPFQNTEEPYENIRNEGQNTDPKLNPKDDGIVYASLALSSSTSPRAPPSHRPLKSPQNETLYSVLKA
glycan array binding signal (z-score) [1]: 0.201 | glycan array binding signal (z-score) [2]: -0.22 | glycan array binding signal (z-score) [3]: 0.015 | glycan array binding signal (z-score) [4]: 0.413 | glycan array binding signal (z-score) [5]: -0.143 | glycan array binding signal (z-score) [6]: -0.27 | glycan array binding signal (z-score) [7]: -0.205 | glycan array binding signal (z-score) [8]: 0.508 | glycan array binding signal (z-score) [9]: -0.112 | glycan array binding signal (z-score) [10]: -0.169 | glycan array binding signal (z-score) [11]: -0.215 | glycan array binding signal (z-score) [12]: -0.203 | glycan array binding signal (z-score) [13]: -0.212 | glycan array binding signal (z-score) [14]: -0.281 | glycan array binding signal (z-score) [15]: -0.4 | glycan array binding signal (z-score) [16]: -0.234 | glycan array binding signal (z-score) [17]: -0.197 | glycan array binding signal (z-score) [18]: -0.256 | glycan array binding signal (z-score) [19]: -0.358 | glycan array binding signal (z-score) [20]: -0.198 | glycan array binding signal (z-score) [21]: 6.02 | glycan array binding signal (z-score) [22]: -0.177 | glycan array binding signal (z-score) [23]: 0.089 | glycan array binding signal (z-score) [24]: -0.132 | glycan array binding signal (z-score) [25]: -0.073 | glycan array binding signal (z-score) [26]: -0.17 | glycan array binding signal (z-score) [27]: -0.023 | glycan array binding signal (z-score) [28]: -0.113 | glycan array binding signal (z-score) [29]: 1.33 | glycan array binding signal (z-score) [30]: 0.065 | glycan array binding signal (z-score) [31]: -0.279 | glycan array binding signal (z-score) [32]: -0.101 | glycan array binding signal (z-score) [33]: -0.167 | glycan array binding signal (z-score) [34]: -0.14 | glycan array binding signal (z-score) [35]: -0.121 | glycan array binding signal (z-score) [36]: -0.229 | glycan array binding signal (z-score) [37]: -0.212 | glycan array binding signal (z-score) [38]: 0.006
